# Measurements: PubChem BioAssay AID1347071 (National Center for Advancing Translational Sciences (NCATS), 2019)
# The campaign covered roughly 410,000 compounds. About 260 (0.063%) were called active. The shares of active, inactive and inconclusive entries below differ from those in the screen. Calls come from the whole dose curve; as a rule, active = well fitted activation curve with a large enough effect; inconclusive = small, poorly fitted or top-dose-only effect; inactive = no such curve, though single readings can be large or run the other way. No potency is given beside an inconclusive call; the fits are too rough.
# Assay: qHTS for compounds that reverse cellular toxicity of Amyloid beta (A-beta) peptide in yeast: Primary Screen; note: nearly all actives have a fitted effect of over 55% in size
# Settings: yeast expressing A-beta42, growth rescue, OD600, 48 h; growth rescue: at 46.1 µM (top of the series), 0% DMSO, 100% iron-clioquinol control
# Summary of the method: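 Yeast growth medium received pinned compounds, then yeast cells expressing toxic A-beta were added; plates incubated at 30 C for 48 hr. Growth read as absorbance at 600 nm, normalized to DMSO and equimolar FeCl3 plus clioquinol controls.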
# Potency is the fitted concentration of half-maximal effect; tags give direction and shape of the fitted curve.
SMILES,Potency,growth rescue
O=S(=O)(Nc1ccc2oc3c(c2c1)CCCC3)c1cc(Cl)ccc1Cl,"inconclusive [activator, partial curve]",
CC(O)(c1cccc(F)c1)c1nc(-c2cccc(F)c2)cs1 (configuration not stated),,inactive: -20.8%
C#CCN(C[C@@H]1[C@@H](OC(=O)Nc2cccs2)[C@@H](OC(=O)Nc2cccs2)Cn2c(=O)n(CCCCCC)c(=O)n21)S(=O)(=O)c1ccc(C)cc1,,inactive: -3.81%
O=C(NCc1cccc(F)c1)c1ccc(-n2cnc3cccnc32)cc1,,inactive: -19.5%
Cc1cccc(Cn2cc(C(=O)Nc3ccc(F)c(C(F)(F)F)c3)ccc2=O)c1,,inactive: -7.67%
Cc1ccccc1NC(=O)c1cccc(C(F)(F)F)c1,"inconclusive [activator, partial curve, poor fit]",
O=C(COc1ccccc1)OCC(=O)c1ccc(O)cc1O,active: 12.6 µM,
CCOc1ccc(C(=O)c2nc3c(n2O)CCCCC3)cc1,,inactive: -6.18%
CC1CCN(C2(O)C(=O)Nc3ccc(Cl)cc32)CC1 (configuration not stated),"inconclusive [activator, single point]",
Nc1ncnc2c(C3OC(CO)C(O)C3O)c[nH]c12 (configuration not stated),,inactive: -25.3%
CC(C)CS(=O)(=O)C1=NN2C(=N)/C(=C\c3ccc(OC(=O)c4ccco4)cc3)C(=O)N=C2S1,"inconclusive [activator, single point]",
COC(=O)c1ccc(Cn2nnc3sc4c(c3c2=O)CCC(C)C4)cc1 (configuration not stated),,inactive: -1.16%
COCCCN(C(=S)Nc1c(C)cc(C)cc1C)C(C)c1ccccn1 (configuration not stated),"inconclusive [activator, single point]",
Cc1ccc(/C=C2\CC(C)CC3=C2NC(=S)NC3c2ccc(C)cc2)cc1 (configuration not stated),"inconclusive [activator, single point]",
NN(Cc1ccccc1)C(=S)Nc1ccc(Cl)c(Cl)c1,"inconclusive [activator, single point]",
CC(C)(C)c1nnc(NS(=O)(=O)c2cc(Cl)ccc2Cl)s1,"inconclusive [activator, full curve, poor fit]",
O=c1cnn(Cc2ccc(Cl)c(Cl)c2)c2ccccc12,"inconclusive [activator, partial curve, poor fit]",
O=C(NCCc1ccc(Cl)cc1)c1cnc2n(c1=O)CCS2,,inactive: 11.8%
Cc1c(Cl)cccc1NC(=S)NCCc1ccc(C(F)(F)F)cc1,"inconclusive [activator, single point]",
Cc1nc(C(=O)N2CCCC(Nc3ccc(C)c(C)c3)C2)cs1 (configuration not stated),"inconclusive [activator, single point]",
COc1ccc(-n2c(-c3ccc(Br)cc3)n[nH]c2=S)cc1,"inconclusive [activator, single point]",
Cc1ccc(O)c(Sc2cc(C)ccc2O)c1,"inconclusive [activator, full curve, poor fit]",
Cc1ccc2c(CC(=O)NCC3(N4CCOCC4)CCCCC3)coc2c1C,"inconclusive [activator, partial curve]",
Cc1cccc2sc(N(Cc3cccnc3)C(=O)C3CCCCC3)nc12,,inactive: -67.8%

SMILES,Potency,growth rescue
O=C(CSc1c2c(nc3ccc(Cl)cc13)CCCC2)N1CCN(C(=O)c2ccco2)CC1,,inactive: -21.8%
Cn1c(=S)[nH]c2scc(-c3cccs3)c2c1=O,"inconclusive [activator, partial curve]",
Cc1nc2scc(-c3cccs3)c2c(=O)[nH]1,,inactive: -11.6%
CCOc1ccc(-c2nc(C#N)c(NCc3ccc4c(c3)OCO4)o2)cc1,,inactive: 4.08%
Cc1cc(C)nc(N/N=C/C2=C(N3CCOCC3)C(=C\c3ccc(Cl)cc3)/CC2)n1,"inconclusive [activator, single point]",
COC(=O)c1c(N2C(=O)CC(Sc3ccccc3C(=O)O)C2=O)sc2c1CCCC2 (configuration not stated),"inconclusive [activator, single point]",
CCOC(=O)c1sc2nc(CC(C)C)c3c(c2c1N)CCC3,"inconclusive [activator, single point]",
CCOC(=O)c1cc(-c2ccccc2)nn1CC1CC(c2ccc(Cl)cc2)=NO1 (configuration not stated),,inactive: 25.1%
Cc1occc1C(=O)N/N=C/c1ccc(Cl)c([N+](=O)[O-])c1,"inconclusive [activator, partial curve, poor fit]",
O=C(Cc1cccs1)NNC(=S)NC(=O)c1ccco1,active: 10 µM,
CCOc1ccc2nc(N(Cc3cccnc3)C(=O)c3ccc4c(c3)OCCO4)sc2c1,,inactive: 5.97%
COc1cccc(CSc2nc3cc(OC)c(OC)cc3c3nc(CCn4nc(C)cc4C)nn23)c1,,inactive: -19.2%
CC1(C(=O)Nc2ccccc2)CCN1C(=O)Cc1ccc(-c2ccccc2)cc1 (configuration not stated),,inactive: 12.9%
O=C(CCCSc1nc2ccccc2[nH]1)NCc1ccccc1Cl,"inconclusive [activator, partial curve, poor fit]",
CCOC(=O)Cn1c(=NC(=O)CSC(C)=O)sc2cc(OC)ccc21,"inconclusive [activator, partial curve, poor fit]",
O=C(O)C1CCC(c2ccc(-c3ccccc3)cc2)CC1 (configuration not stated),"inconclusive [activator, full curve, poor fit]",
CCOc1ccc(OCC)c(NC(=O)c2cnc3c(-c4ccccc4)c(C)nn3c2C)c1,,inactive: -26.8%
COc1cc(OC)c(NC(=O)CSC2=Nc3ccccc3N=C(c3ccc(F)cc3)C2)cc1Cl,,inactive: -2.46%
Cc1cccc(Nc2nc(Nc3cccc(C)c3)nc(N3CCOCC3)n2)c1,,inactive: 8.54%
CC1(C)C([N+](=O)[O-])C(c2ccc(Cl)cc2)NC(c2ccc(Cl)cc2)C1[N+](=O)[O-] (configuration not stated),"inconclusive [activator, partial curve]",
COc1ccc(Br)c(Cn2c(C)c(C(=O)NCCC#N)sc2=O)c1,,inactive: -11.1%
COc1cc(Cl)c(NC(=O)c2cc(S(=O)(=O)N3CCOCC3)cn2C)c(OC)c1,,inactive: -15.3%
CC1CCN(C(=S)c2cn(Cc3ccc(F)cc3)c3ccccc23)CC1,"inconclusive [activator, partial curve, poor fit]",
